# Results taken from the supplement of paper PMC8728848.
# The list shows a part of the results.
# B1: DCIR (Homo sapiens), Q9UMR7 (protein)
# chain: MTSEITYAEVRFKNEFKSSGINTASSAASKERTAPHKSNTGFPKLLCASLLIFFLLLAISFFIAFVIFFQKYSQLLEKKTTKELVHTTLECVKKNMPVEETAWSCCPKNWKSFSSNCYFISTESASWQDSEKDCARMEAHLLVINTQEEQDFIFQNLQEESAYFVGLSDPEGQRHWQWVDQTPYNESSTFWHPREPSDPNERCVVLNFRKSPKRWGWNDVNCLGPQRSVCEMMKIHL
# Assays:
# Assay in all cases: glycan array binding signal (z-score within array); higher = stronger binding
# Conditions in all cases: glycan notation: IUPAC condensed, linker removed
# Fuc(a1-2)Gal = target: Fuc(a1-2)Gal
# Summary of the method: (§1)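 Columns mapping to the same glycan were averaged after glycan names were converted to IUPAC-condensed notation. The data come from 3228 arrays in the Consortium for Functional Glycomics database, limited to those with an available protein sequence. Binding is reported as a within-array Z-score averaged across arrays of one protein sequence and across linkers.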
# Fuc(a1-2)Gal(b1-3)GalNAc = target: Fuc(a1-2)Gal(b1-3)GalNAc
# Summary of the method: as §1
# [1] = target: Fuc(a1-2)Gal(b1-3)GalNAc(b1-3)Gal
# Summary of the method: as §1
# [2] = target: Fuc(a1-2)Gal(b1-3)GalNAc(b1-3)Gal(a1-4)Gal(b1-4)Glc
# Summary of the method: as §1
# [3] = target: Fuc(a1-2)Gal(b1-3)GalNAc(b1-4)[Neu5Ac(a2-3)]Gal(b1-4)Glc
# Summary of the method: as §1
# Fuc(a1-2)Gal(b1-3)GlcNAc = target: Fuc(a1-2)Gal(b1-3)GlcNAc
# Summary of the method: as §1
# [4] = target: Fuc(a1-2)Gal(b1-3)GlcNAc(b1-3)Gal(b1-4)Glc
# Summary of the method: as §1
# [5] = target: Fuc(a1-2)Gal(b1-3)[Fuc(a1-4)]GlcNAc
# Summary of the method: as §1
# Fuc(a1-2)Gal(b1-4)Glc = target: Fuc(a1-2)Gal(b1-4)Glc
# Summary of the method: as §1
# Fuc(a1-2)Gal(b1-4)GlcNAc = target: Fuc(a1-2)Gal(b1-4)GlcNAc
# Summary of the method: as §1
# [6] = target: Fuc(a1-2)Gal(b1-4)GlcNAc(b1-3)Gal(b1-4)GlcNAc
# Summary of the method: as §1
# [7] = target: Fuc(a1-2)Gal(b1-4)GlcNAc(b1-3)Gal(b1-4)GlcNAc(b1-3)Gal(b1-4)GlcNAc
# Summary of the method: as §1
# [8] = target: Fuc(a1-2)Gal(b1-4)[Fuc(a1-3)]GlcNAc
# Summary of the method: as §1
# [9] = target: Fuc(a1-2)Gal(b1-4)[Fuc(a1-3)]GlcNAc(b1-3)Gal(b1-4)[Fuc(a1-3)]GlcNAc
# Summary of the method: as §1
# [10] = target: Fuc(a1-2)Gal(b1-4)[Fuc(a1-3)]GlcNAc(b1-3)Gal(b1-4)[Fuc(a1-3)]GlcNAc(b1-3)Gal(b1-4)[Fuc(a1-3)]GlcNAc
# Summary of the method: as §1
# Fuc(a1-2)GlcNAc = target: Fuc(a1-2)GlcNAc
# Summary of the method: as §1
# Fuc(a1-2)[Gal(a1-3)]Gal = target: Fuc(a1-2)[Gal(a1-3)]Gal
# Summary of the method: as §1
# [11] = target: Fuc(a1-2)[Gal(a1-3)]Gal(b1-3)GlcNAc
# Summary of the method: as §1
# [12] = target: Fuc(a1-2)[Gal(a1-3)]Gal(b1-4)Glc
# Summary of the method: as §1
# [13] = target: Fuc(a1-2)[Gal(a1-3)]Gal(b1-4)GlcNAc
# Summary of the method: as §1
# [14] = target: Fuc(a1-2)[Gal(a1-3)]Gal(b1-4)[Fuc(a1-3)]GlcNAc
# Summary of the method: as §1
# [15] = target: Fuc(a1-2)[Gal(a1-4)]Gal(b1-4)GlcNAc
# Summary of the method: as §1
# [16] = target: Fuc(a1-2)[GalNAc(a1-3)]Gal
# Summary of the method: as §1
# [17] = target: Fuc(a1-2)[GalNAc(a1-3)]Gal(b1-3)GlcNAc
# Summary of the method: as §1
# [18] = target: Fuc(a1-2)[GalNAc(a1-3)]Gal(b1-4)Glc
# Summary of the method: as §1
# [19] = target: Fuc(a1-2)[GalNAc(a1-3)]Gal(b1-4)GlcNAc
# Summary of the method: as §1
# [20] = target: Fuc(a1-2)[GalNAc(a1-3)]Gal(b1-4)[Fuc(a1-3)]GlcNAc
# Summary of the method: as §1
# [21] = target: Fuc(a1-2)[GalNAc(a1-4)]Gal(b1-4)GlcNAc
# Summary of the method: as §1
# [22] = target: Fuc(a1-2)[GalNAc(b1-3)]Gal
# Summary of the method: as §1
# Fuc(a1-3)GlcNAc = target: Fuc(a1-3)GlcNAc
# Summary of the method: as §1
# [23] = target: Fuc(a1-3)[Gal(b1-4)]GlcNAc
# Summary of the method: as §1
# [24] = target: Fuc(a1-3)[Gal(b1-4)]GlcNAc(b1-4)Gal(b1-4)[Fuc(a1-3)]GlcNAc
# Summary of the method: as §1
# [25] = target: Fuc(a1-3)[Gal(b1-4)]GlcNAc(b1-4)Gal(b1-4)[Fuc(a1-3)]GlcNAc(b1-4)Gal(b1-4)[Fuc(a1-3)]GlcNAc
# Summary of the method: as §1
# [26] = target: Fuc(a1-3)[Gal3S(b1-4)]GlcNAc
# Summary of the method: as §1
# [27] = target: Fuc(a1-3)[GalNAc(b1-4)]GlcNAc
# Summary of the method: as §1
# Fuc(a1-4)GlcNAc = target: Fuc(a1-4)GlcNAc
# Summary of the method: as §1
# Fuc(b1-3)GlcNAc = target: Fuc(b1-3)GlcNAc
# Summary of the method: as §1
# Gal(a1-2)Gal = target: Gal(a1-2)Gal
# Summary of the method: as §1
# Gal(a1-3)Gal = target: Gal(a1-3)Gal
# Summary of the method: as §1
# Gal(a1-3)Gal(b1-3)GlcNAc = target: Gal(a1-3)Gal(b1-3)GlcNAc
# Summary of the method: as §1
# Gal(a1-3)Gal(b1-4)Glc = target: Gal(a1-3)Gal(b1-4)Glc
# Summary of the method: as §1
# Gal(a1-3)Gal(b1-4)GlcNAc = target: Gal(a1-3)Gal(b1-4)GlcNAc
# Summary of the method: as §1
# [28] = target: Gal(a1-3)Gal(b1-4)[Fuc(a1-3)]GlcNAc
# Summary of the method: as §1
# Gal(a1-3)GalNAc = target: Gal(a1-3)GalNAc
# Summary of the method: as §1
# [29] = target: Gal(a1-3)[Gal(a1-4)]Gal(b1-4)GlcNAc
# Summary of the method: as §1
binder,measurement,setting,value
B1,glycan array binding signal (z-score),Fuc(a1-2)Gal,-0.187
same,glycan array binding signal (z-score),Fuc(a1-2)Gal(b1-3)GalNAc,-0.111
same,glycan array binding signal (z-score),[1],-0.347
same,glycan array binding signal (z-score),[2],-0.026
same,glycan array binding signal (z-score),[3],0.049
same,glycan array binding signal (z-score),Fuc(a1-2)Gal(b1-3)GlcNAc,-0.136
same,glycan array binding signal (z-score),[4],-0.207
same,glycan array binding signal (z-score),[5],-0.419
same,glycan array binding signal (z-score),Fuc(a1-2)Gal(b1-4)Glc,-0.479
same,glycan array binding signal (z-score),Fuc(a1-2)Gal(b1-4)GlcNAc,-0.389
same,glycan array binding signal (z-score),[6],-0.461
same,glycan array binding signal (z-score),[7],-0.35
same,glycan array binding signal (z-score),[8],-0.249
same,glycan array binding signal (z-score),[9],-0.367
same,glycan array binding signal (z-score),[10],-0.25
same,glycan array binding signal (z-score),Fuc(a1-2)GlcNAc,-0.484
same,glycan array binding signal (z-score),Fuc(a1-2)[Gal(a1-3)]Gal,-0.412
same,glycan array binding signal (z-score),[11],-0.141
same,glycan array binding signal (z-score),[12],-0.422
same,glycan array binding signal (z-score),[13],-0.284
same,glycan array binding signal (z-score),[14],-0.381
same,glycan array binding signal (z-score),[15],-0.153
same,glycan array binding signal (z-score),[16],-0.289
same,glycan array binding signal (z-score),[17],-0.424
same,glycan array binding signal (z-score),[18],-0.363
same,glycan array binding signal (z-score),[19],-0.334
same,glycan array binding signal (z-score),[20],-0.12
same,glycan array binding signal (z-score),[21],-0.114
same,glycan array binding signal (z-score),[22],-0.31
same,glycan array binding signal (z-score),Fuc(a1-3)GlcNAc,-0.36
same,glycan array binding signal (z-score),[23],-0.434
same,glycan array binding signal (z-score),[24],0.076
same,glycan array binding signal (z-score),[25],-0.494
same,glycan array binding signal (z-score),[26],-0.407
same,glycan array binding signal (z-score),[27],-0.428
same,glycan array binding signal (z-score),Fuc(a1-4)GlcNAc,-0.295
same,glycan array binding signal (z-score),Fuc(b1-3)GlcNAc,-0.551
same,glycan array binding signal (z-score),Gal(a1-2)Gal,-0.512
same,glycan array binding signal (z-score),Gal(a1-3)Gal,-0.425
same,glycan array binding signal (z-score),Gal(a1-3)Gal(b1-3)GlcNAc,-0.435
same,glycan array binding signal (z-score),Gal(a1-3)Gal(b1-4)Glc,-0.429
same,glycan array binding signal (z-score),Gal(a1-3)Gal(b1-4)GlcNAc,0.183
same,glycan array binding signal (z-score),[28],-0.194
same,glycan array binding signal (z-score),Gal(a1-3)GalNAc,-0.433
same,glycan array binding signal (z-score),[29],-0.405
